Some of the results follow. Values were computed here from the reads of four pooled replicates and scatter widely.
Molecular target: T1, Pho4 (S. cerevisiae) (UniProt P07270)
T1 sequence: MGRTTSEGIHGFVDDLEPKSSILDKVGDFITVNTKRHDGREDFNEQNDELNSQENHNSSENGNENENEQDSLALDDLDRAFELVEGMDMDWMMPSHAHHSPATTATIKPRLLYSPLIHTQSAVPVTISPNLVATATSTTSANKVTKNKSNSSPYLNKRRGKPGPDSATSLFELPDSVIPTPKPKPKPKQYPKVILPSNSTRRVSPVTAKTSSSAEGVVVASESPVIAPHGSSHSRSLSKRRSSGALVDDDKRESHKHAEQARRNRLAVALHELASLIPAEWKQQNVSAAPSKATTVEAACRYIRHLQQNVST
Experiment: relative binding free energy (BET-seq); higher = weaker binding
Settings: reference: library average

| Sequence | relative binding free energy [kcal/mol] |
| --- | --- |
| CGAGTCACGTGGTATG | 0.06 |
| TCTTGCACGTGCGTGG | -0.08 |
| GATGCCACGTGTTTTT | 0.05 |
| GAATGCACGTGGTTTG | 0 |
| GTATTCACGTGGTCGT | 0.17 |
| AGGAGCACGTGATGTT | 0.03 |
| GTCTGCACGTGGTGGA | 0.01 |
| TTGTTCACGTGAAATG | 0.45 |
| GTTGCCACGTGGGTCT | -0.18 |
| CAGAGCACGTGAGTGG | 0.06 |
| AGGATCACGTGGAAGT | 0.25 |
| GTAATCACGTGGTGAG | 0.14 |
| GGATTCACGTGGACGT | 0.24 |
| GAGATCACGTGCTAGG | 0.38 |
| TTGTTCACGTGGTCTT | 0.16 |
| CAGGACACGTGTGGTT | 0.13 |
| GCGTTCACGTGTGAGT | 0.23 |
| TATGTCACGTGGAAAA | 0.14 |
| GGAAGCACGTGATAGT | -0.14 |
| GCAATCACGTGTGGGA | 0.22 |
| GGCGACACGTGTGTGG | 0.15 |
| TGCCACACGTGTGTTA | 0.24 |
| ATTGGCACGTGAGATT | 0.04 |

| Sequence | relative binding free energy [kcal/mol] |
| --- | --- |
| TTCTTCACGTGGATGG | 0.26 |
| GTTATCACGTGCAGTG | 0.09 |
| CAGGTCACGTGGGCAT | 0.03 |
| TTTTTCACGTGCAGAG | 0.4 |
| TAATTCACGTGAAGTT | 0.3 |
| GTCATCACGTGGGTGC | 0.08 |
| ATTTGCACGTGGGGCG | -0.15 |
| TGCAGCACGTGTGTTT | -0.14 |
| GTGGGCACGTGCTGCT | -0.25 |
| TGTTCCACGTGTGGAG | 0.2 |
| TATAGCACGTGTGTGC | 0.02 |
| GAGGGCACGTGGCCGG | -0.26 |
| ATGTACACGTGGGGAT | 0.05 |
| TAGACCACGTGGGTTG | -0.1 |
| TGCAACACGTGATGTT | 0.29 |
| GAAGTCACGTGGATGG | 0.12 |
| CGGGGCACGTGGTCAT | -0.22 |
| ATTTGCACGTGGCCTG | -0.08 |
| TTATTCACGTGTTGAG | 0.22 |
| TTGTACACGTGTGCGC | 0.1 |
| GGGGGCACGTGTATGC | 0.02 |
| GATTTCACGTGGAGCG | 0.29 |
| GGTGTCACGTGGGTGG | 0.03 |

| Sequence | relative binding free energy [kcal/mol] |
| --- | --- |
| GATGGCACGTGGTATC | 0.01 |
| GTTTGCACGTGGCTGC | -0.01 |
| GTGCACACGTGTGGTA | 0.2 |
| GGGGTCACGTGGATGG | 0.19 |
| GCGAGCACGTGGGTCG | -0.19 |
| TGATGCACGTGTGCTT | 0.02 |
| GGGATCACGTGCTGTT | 0.35 |
| GTGCACACGTGGTTTT | 0.1 |
| GTGGCCACGTGGGACG | -0.13 |
| GTGGTCACGTGTTGGG | 0.15 |
| AAGTCCACGTGGGGGA | -0.17 |
| GTCCGCACGTGCGGGG | -0.12 |
| TTTTGCACGTGTTCTG | -0.09 |
| TTGCGCACGTGAGGTT | 0.02 |
| CGGGGCACGTGGAGCG | -0.15 |
| GGCTGCACGTGGGGTT | -0.09 |
| GTTTTCACGTGCCGGT | 0.28 |
| ACGTACACGTGGAGGT | 0.08 |
| AGTTACACGTGAGCTT | 0.21 |
| ATGGACACGTGTGAGT | 0.01 |
| TTACGCACGTGGTAAT | -0.06 |
| TAGTGCACGTGGTACT | -0.25 |
| TAAGGCACGTGAGGAC | 0.23 |

| Sequence | relative binding free energy [kcal/mol] |
| --- | --- |
| CTTTGCACGTGAGTGC | 0.23 |
| TGCGTCACGTGTGATT | 0.11 |
| GTAGGCACGTGAGTCT | 0.18 |
| GACATCACGTGGTAGT | 0.35 |
| GTGCGCACGTGAGAGT | 0.28 |
| TGGAGCACGTGGAGTC | -0.14 |
| TGGGACACGTGAGCGT | 0.12 |
| AATGACACGTGTGGCT | 0.01 |
| TGGATCACGTGTGTTG | 0.09 |
| CCTGTCACGTGTTGGT | 0.1 |
| GTGGACACGTGGTTAC | -0.02 |
| TTGTTCACGTGGCGGG | 0.2 |
| TGTACCACGTGATTTT | 0.06 |
| CTAAGCACGTGGGCTG | -0.15 |
| TCGTTCACGTGTGACT | 0.41 |
| GAGCGCACGTGGGTGT | -0.25 |
| GGGGCCACGTGTAATG | 0.01 |
| GCTAGCACGTGGTTGA | 0.06 |
| TGAAGCACGTGGTATT | -0.16 |
| GCGATCACGTGTTTGA | 0.39 |
| TGAGTCACGTGCTATT | -0.02 |
| ATTAACACGTGTGGTC | 0.19 |
| GGACGCACGTGGTTGG | -0.12 |

| Sequence | relative binding free energy [kcal/mol] |
| --- | --- |
| GGGGTCACGTGTCGGG | 0.19 |
| GATTTCACGTGGTTAT | 0.27 |
| TTGTTCACGTGAAAGC | 0.35 |
| ATTTCCACGTGTTTAT | 0.1 |
| TTATTCACGTGTTTAG | 0.38 |
| TATTGCACGTGAGGCG | 0.12 |
| ATTGACACGTGTTAAA | 0.09 |
| AATGTCACGTGCTGTT | -0.08 |
| GTATTCACGTGCGTGG | 0.06 |
| GGTGGCACGTGCTAGG | -0.08 |
| TACTTCACGTGTATTA | 0.25 |
| GGTCGCACGTGATTAT | 0.18 |
| TGAAGCACGTGGCGCG | -0.16 |
| TAGAGCACGTGGTATA | -0.16 |
| GTTTACACGTGGAGGG | 0.12 |
| GTAATCACGTGGGAGT | 0.07 |
| GCTGGCACGTGTATTT | 0.04 |
| GCGTACACGTGTATTG | 0.03 |
| TAGGTCACGTGCGATT | 0.21 |
| ACGTGCACGTGAAGGG | 0.1 |
| CGTATCACGTGTTGTG | 0.13 |
| TTACGCACGTGGGGCT | -0.38 |
| GGGTGCACGTGAAGTT | 0.35 |
